# In PubChem BioAssay AID596 (National Center for Advancing Translational Sciences (NCATS), 2007):
# Values joined by “and” are separate entries in the source; they are usually repeats but may differ in a detail not shown here. Equal values may be shown once. The whole screen tested about 71,000 compounds, of which about 1,400 (2%) were called active. The inconclusive results got no clear call from the source; some entries with a clear call stand among them for comparison. Calls come from the whole dose curve; as a rule, active = well fitted curve in the direction sought with a large enough effect; inconclusive = small, poorly fitted or top-dose-only effect; inactive = no such curve, though single readings can be large or run the other way. Potencies beside an inconclusive call are fits to weak or partial responses and may not hold up.
# Target: Microtubule-associated protein tau (Homo sapiens) (UniProt P10636)
# UniProt P10636, sequence (P10636 whole entry, looked up): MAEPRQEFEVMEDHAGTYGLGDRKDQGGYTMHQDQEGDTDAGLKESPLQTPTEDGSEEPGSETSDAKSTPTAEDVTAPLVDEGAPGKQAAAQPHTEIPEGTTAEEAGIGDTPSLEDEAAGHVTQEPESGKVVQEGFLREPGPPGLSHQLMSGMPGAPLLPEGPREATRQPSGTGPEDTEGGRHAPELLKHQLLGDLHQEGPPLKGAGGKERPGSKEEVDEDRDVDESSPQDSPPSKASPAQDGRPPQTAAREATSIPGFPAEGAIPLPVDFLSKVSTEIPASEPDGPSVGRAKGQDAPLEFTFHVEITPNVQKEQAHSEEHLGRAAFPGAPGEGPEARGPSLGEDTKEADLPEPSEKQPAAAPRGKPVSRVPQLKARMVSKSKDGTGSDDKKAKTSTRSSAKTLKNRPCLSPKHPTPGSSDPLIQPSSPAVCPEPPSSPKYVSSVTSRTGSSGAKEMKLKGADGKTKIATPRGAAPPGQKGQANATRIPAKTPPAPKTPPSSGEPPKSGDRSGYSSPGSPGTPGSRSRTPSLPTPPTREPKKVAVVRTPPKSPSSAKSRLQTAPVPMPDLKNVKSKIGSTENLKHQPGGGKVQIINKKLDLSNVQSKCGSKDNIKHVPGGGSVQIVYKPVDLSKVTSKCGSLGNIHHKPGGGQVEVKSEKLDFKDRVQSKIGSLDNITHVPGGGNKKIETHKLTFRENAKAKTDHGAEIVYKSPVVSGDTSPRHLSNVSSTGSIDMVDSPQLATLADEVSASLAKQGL
# Test: qHTS Assay for Tau Filament Binding;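 note: actives lower thioflavin S fluorescence by blocking filaments or displacing dye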
# Conditions: recombinant tau filaments, thioflavin S fluorescence, 15 h, filaments grown with octadecylsulfate alongside compound; series mostly up to 57.1 µM; activity change, negative = inhibition: at the top concentration
# From the text: NIH Molecular Libraries Screening Centers Network [MLSCN]
# NIH Chemical Genomics Center [NCGC]
# Assay Provider: Jeffrey A. Kuret, Ohio State University
# Tau monomers form filaments in vitro in the presence of anionic detergents or fatty acids. The dye Thioflavine S (ThS) binds to tau filaments and upon binding, increases in fluorescence several fold. Small molecules that displace ThS binding or prevent filament binding are identified by a reduction in ThS fluorescence. This assay used histidine-tagged, recombinant human tau protein containing the products of exons 2, 3, and 10 that was provided by Jeff Kuret, Ohio State University. To form filaments, 1 uM tau was incubated with 30 uM sodium octadecylsulfate (ODS) in reagent buffer (10 uM thioflavine S, 5 mM 1,4-dithioerythreitol (DTT), 100 mM sodium chloride, 10 mM HEPES pH 7.4) for 15 hrs at 37 C.
# NCGC Assay Protocol Summary:
# Assay Steps. Two uL/well of 2 uM tau in reagent buffer (10 uM thioflavine S, 5 mM DTT, 100 mM sodium chloride, 10 mM HEPES pH 7.4) was dispensed into solid black 1536-well plates. Twenty-three nL compound was transferred to the assay plate after which 2 uL/well of 60 uM ODS in reagent buffer was dispensed for a final assay volume of 4 uL /well. Following 15 hours of incubation at 37 C, fluorescence was detected by an Envision (Perkin Elmer) using 450/8 nm excitation and 510/23 nm emission.
# Keywords: NIH Roadmap, MLSCN, MLI, MLSMR, qHTS, NCGC, Alzheimer's disease, Neurofibrillary lesions, tau, tubulin assembly, microtubule stability, cytoskeletal integrity, fibrillization, thioflavin dyes, Amyloidgenic
# % is set by controls: 0 for no effect and ±100 for the full control effect; potency is the fitted concentration of half-maximal effect.
SMILES,Potency,"activity change, negative = inhibition"
Cc1ccc(NC(=O)NC2=N/C(=C(/C#N)C(=O)N3CCCC3)c3ccccc32)cc1,active: 5.01 µM,
COc1cc(NC(=O)c2ccccc2)cc(OC)c1,active: 10 µM,
Oc1cc2c(cc1O)[C@H](c1ccccc1)CNCC2,inconclusive: 39.8 µM [decreasing],
O=C(O)C=Cc1ccc(Cn2ccnc2)cc1,inconclusive: 39.8 µM [decreasing],
COc1cc(OC)c(C2N(c3ccc(Cl)cc3)C(=O)C3CCCN32)cc1OC (configuration not stated),active: 20 µM,
Cc1cc(/N=C/C=C2\N(C)c3ccccc3C2(C)C)n(CCC#N)n1,inconclusive: 31.6 µM [decreasing],
O=C(NCCN1CCOCC1)c1cc2ccccc2o1,,inactive: -4.1%
Nc1nc(CSc2nc3ccccc3s2)nc(N2CCCCC2)n1,,inactive: 60.5%
CCOc1cccc(=O)c2c(C)n(Cc3ccco3)c(C)c12,active: 3.98 µM,
COc1ccc(NCc2n[nH]nc2-c2ccccc2)cc1Cl,inconclusive: 39.8 µM [decreasing],
CC(C)(C)c1cc(CN2CCCC(O)C2)c(O)c(C(C)(C)C)c1 (configuration not stated),active: 5.01 µM,
O=C(Nc1ccccc1C(=O)N1CCOCC1)C1CCCO1 (configuration not stated),inconclusive: 39.8 µM [decreasing],
COc1cccc(-c2nc(=S)c3c(n2Cc2ccco2)CCCC3)c1,active: 15.8 µM,
O=C(c1cc(-c2cccnc2)nc2ccc(Br)cc12)N1CCN(c2ncccn2)CC1,inconclusive: 25.1 µM [decreasing],
CCOC(=O)CCS(=O)(=O)c1nc(-c2ccccc2)cc(C(F)(F)F)n1,inconclusive: 20 µM [decreasing],
O=c1[nH]c(NCCO)nc2c1C1(CCCCC1)Cc1ccccc1-2,inconclusive: 31.6 µM [decreasing],
COC(=O)c1cnn2c(C(F)(F)F)cc(-c3ccco3)nc12,active: 15.8 µM,
N#Cc1c(NC(=O)CSc2nnc(-c3ccccc3O)n2-c2ccccc2)sc2c1CCCC2,,inactive: -3.2%
NC1(C(=O)O)C[C@H](C(=O)O)[C@H](C(=O)O)C1 (some centres not stated),inconclusive: 39.8 µM [decreasing],
Cc1nc(C)c(C(=O)Nc2cccc(Cl)c2)o1,inconclusive: 7.94 µM [decreasing],
Cc1cc(C)c(NC(=O)C2CCCN2CCO)c(C)c1 (configuration not stated),,inactive: -12.4%

SMILES,Potency,"activity change, negative = inhibition"
CCOC(=O)Cn1c(=O)oc2cc(S(=O)(=O)Nc3ccc(N(CC)CC)cc3C)ccc21,inconclusive: 31.6 µM [decreasing],
Cc1cc(C(=O)OCC(=O)N2CCN(c3ccccc3)CC2)c2ccccc2n1,active: 12.6 µM,
CC1CCN(Cc2c(C#N)c3ccccc3n2C)CC1,,inactive: -2.2%
O=S(=O)(c1cccc2nsnc12)N1CCc2ccccc2C1,active: 20 µM,
O=C(O)CC/C=C\CC[C@H]1[C@@H](N2CCCCC2)[C@@H](O)C[C@@H]1OCc1ccc(-c2ccccc2)cc1,inconclusive: 39.8 µM [decreasing],
Nc1nc(-c2ccco2)c(-c2ccco2)s1,inconclusive: 25.1 µM [decreasing],
COc1ccc(-c2nnc(SCCc3ccccc3)n2N)cc1,,inactive: -12.8%
NC(=O)CSc1nnc(-c2ccc(S(=O)(=O)N3CCCC3)cc2)n1Cc1ccco1,,inactive: 11%
Cc1cc(N2CCOCC2)nc2ccc(Cc3ccc4nc(N5CCOCC5)cc(C)c4c3)cc12,,inactive: 5% [at 11.4 µM]
CCCCNC(=O)[C@@H]1Cc2ccccc2N1C(=O)[C@H](N)CC,inconclusive: 39.8 µM [decreasing],
CS(=O)(=O)Nc1cccc(-c2ccc3ncnc(NCc4cccs4)c3c2)c1,,inactive: 32.5%
CS(=O)(=O)c1ccc2nc(NC(=O)C3COc4ccccc4O3)sc2c1 (configuration not stated),,inactive: -4.1%
O=c1c(-c2cccc(F)c2)nc2cncnc2n1Cc1ccccc1Cl,inconclusive: 7.94 µM [decreasing],
CC(=O)[C@@]1(O)Cc2c(O)c3c(c(O)c2[C@H](O[C@H]2C[C@H](N)[C@H](O)[C@H](C)O2)C1)C(=O)c1ccccc1C3=O,active: 1.58 µM,
Cc1cc2oc3c(c(=O)c2cc1C)C(c1ccc(F)cc1)N(CCCN1CCOCC1)C3=O (configuration not stated),active: 20 µM,
Cc1ccc(-c2c3c([nH]c(=S)c2C#N)CCCC3)o1,inconclusive: 25.1 µM [decreasing],
Cc1ccccc1OCCCC(=O)Nc1ccc2c(c1)OCO2,inconclusive: 10 µM [decreasing],
COC1=CC(=O)C[C@@H](C)[C@@]12Oc1c(Cl)c(OC)cc(OC)c1C2=O,inconclusive: 39.8 µM [decreasing],
N#CC1=C(N)SC2(CCCCC2)SC1c1ccccc1 (configuration not stated),active: 20 µM,
O=C(CCNS(=O)(=O)c1cccc2nonc12)N1CCN(c2cccc(Cl)c2)CC1,inconclusive: 31.6 µM [decreasing],
Cc1cc(C)cc(C(=O)N(C)[C@H](Cc2ccc(-c3ccccc3)cc2)C(=O)N[C@@H](Cc2c[nH]c3ccccc23)C(=O)O)c1,inconclusive: 39.8 µM [decreasing],

SMILES,Potency,"activity change, negative = inhibition"
C=C[C@H](N)CCC(=O)O,inconclusive: 39.8 µM [decreasing],
C=CCn1c(SCC(=O)Nc2ccc(N(C)C)cc2)nnc1-c1cccc(C)c1,active: 25.1 µM,
N#Cc1c(NC(=O)c2ccncc2)sc2c1CCC2,active: 15.8 µM,
Cc1ccc2[nH]c(=O)c(CN(CC3CCCO3)S(=O)(=O)c3cccc4nsnc34)cc2c1 (configuration not stated),inconclusive: 7.94 µM [decreasing],
COc1ccc(NCC(=O)Nc2ccc(Cl)cc2C)c(OC)c1,inconclusive: 31.6 µM [decreasing],
CCC(C)Cn1c(C)nc2ccccc21 (configuration not stated),,inactive: -12.6%
CC1(C)c2ssc(=S)c2-c2ccccc2N1C(=O)c1ccco1,active: 3.16 µM,
COc1ccc(CNC(=O)NCc2ccc(OC)c(OC)c2)cc1OC,,inactive: -9.8%
COc1ccc(-c2cc(C(F)(F)F)nc(SCCC(=O)N3CCOCC3)n2)cc1,,inactive: 40.8%
Cc1noc(C)c1-c1cc(NCc2cccnc2)ncn1,,inactive: 5.5%
Cc1cc(N2CCOCC2)c2c(N)c(C)cc(C)c2n1,active: 15.8 µM,
COc1cc(Sc2ccc(C)cc2)c(OC)cc1N,active: 25.1 µM,
CC(C)C[C@@H](CC(=O)N[C@@H](CCC(=O)O)CC(=O)O)NC(=O)[C@@H]1CCCC[C@H]1NC(=O)C[C@@H](NC(=O)C[C@H](Cc1c[nH]c2ccccc12)NC(=O)[C@@H]1CCCC[C@H]1N)C(C)C,inconclusive: 31.6 µM [decreasing],
O=C1CC(Nc2ccc(N3CCOCC3)cc2)C(=O)N1Cc1ccccc1 (configuration not stated),inconclusive: 39.8 µM [decreasing],
Cc1ccc(-c2nc3c(=O)n(C)c4ccccc4c3o2)cc1,,inactive: 59.5%
CSc1ccc2c(c1)N(CC[C@H]1CCCCN1C)c1ccccc1S2,inconclusive: 10 µM [decreasing] and active: 3.98 µM,
CC(C)C1=CC2=CC[C@H]3[C@@](C)(CCC[C@]3(C)C(=O)O)[C@@H]2CC1,inconclusive: 39.8 µM [decreasing],
Cc1c(NC(=O)c2cnn3c(C(F)(F)F)cc(-c4ccco4)nc23)c(=O)n(-c2ccccc2)n1C,inconclusive: 25.1 µM [decreasing],
NCCS(=O)(=O)O,inconclusive: 39.8 µM [decreasing],
COc1ccc(OC)c(N2C(=O)[C@@H]3C(c4ccccc4Cl)=NO[C@@H]3C2=O)c1,inconclusive: 25.1 µM [decreasing],
CN1Cc2cc(C(=O)c3cc(Cl)cc(CSc4ncccn4)c3O)cnc2NC1=O,active: 15.8 µM,

SMILES,Potency,"activity change, negative = inhibition"
CN(C)S(=O)(=O)c1ccc2c(c1)c(=O)c(C(=O)N1CCOCC1)cn2C,,inactive: -1.8%
COc1cccc2cc(-c3cn4cccc(C)c4n3)c(=O)oc12,,inactive: -6.2%
Cc1cccc(N=C2NC(=O)/C(=C3/C(=O)N(C)c4ccccc43)S2)c1C,inconclusive: 31.6 µM [decreasing],
CCCc1nc2sc3ccccc3c(=O)c2c(=O)n1Cc1ccco1,active: 15.8 µM,
CC(C)CCNc1nc2c(c(=O)n(Cc3cccc(F)c3)c(=O)n2C)n1C,inconclusive: 20 µM [decreasing],
CC(=O)Nc1cccc(NC(=O)c2c(-c3ccccc3Cl)noc2C)c1,,inactive: 1.2%
CC(=O)N1CCN(c2ccc(NCc3ccc(C)s3)cc2)CC1,inconclusive: 25.1 µM [decreasing],
CC(C)c1ccc(C2CC(=O)N3CN(Cc4ccco4)CSC3=C2C#N)cc1 (configuration not stated),inconclusive: 25.1 µM [decreasing],
CC(C)CC(=O)Nc1c2c(nn1-c1ccc(F)cc1)CSC2,,inactive: -0.2%
CC(=O)N1CCN(c2ccc(NCc3ccc(F)cc3)cc2)CC1,inconclusive: 25.1 µM [decreasing],
Cn1c(=O)c(-c2ccc(Cl)cc2)nc2cnc(Oc3cccc(Cl)c3)nc21,inconclusive: 3.98 µM [decreasing],
Cc1cc2c(N=O)c(NO)ccc2[nH]1,inconclusive: 31.6 µM [decreasing],
COc1ccc(CCN2CCC(Nc3nc4ccccc4n3Cc3ccc(F)cc3)CC2)cc1,,inactive: 101% [at 25.6 µM]
Oc1ccccc1C(=S)N1CCCCC1,,inactive: -3.6%
COc1cccc(Cn2c(=O)c(-c3ccc(F)cc3)nc3cncnc32)c1,inconclusive: 31.6 µM [decreasing],
CCCc1cc(C(N)=O)c(NC(=O)C2CCCO2)s1 (configuration not stated),,inactive: 25.2%
CC(C)NC[C@@H](O)COc1ccc(COCCOC(C)C)cc1,inconclusive: 39.8 µM [decreasing],
COC(=O)c1ccc(CSc2nc(-c3ccco3)cc(C(F)(F)F)n2)o1,inconclusive: 39.8 µM [decreasing],
O=C(Nc1ccc(-c2noc(COc3ccccc3Cl)n2)cc1)c1ccco1,active: 3.16 µM,
